# Test results: the supplement of paper PMC8792480
# Some of the results follow. Repeats are few or missing, and single values can be far off.
# What was measured:
# [1] = system: NCI-H460; assay: cell-surface PD-L1 MFI ratio relative to radiation alone (isotype-subtracted); higher = higher PD-L1 surface expression; settings: inducer: radiation 8 Gy; 10 µM; 24 h
# Description: (§1)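 A549 and H460 NSCLC cells were treated with each library drug at 10 uM, then with radiation (8 Gy) or cisplatin (4 uM), and incubated for 24 h. Cell-surface PD-L1 was measured by flow cytometry as an MFI ratio: (MFI drug+inducer - MFI isotype)/(MFI inducer alone - MFI isotype). Hits were defined as ratio < 0.75.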
# [2] = system: A549; assay: cell-surface PD-L1 MFI ratio relative to cisplatin alone (isotype-subtracted); higher = higher PD-L1 surface expression; settings: inducer: cisplatin 4 uM; 10 µM; 24 h
# Description: as §1
# [3] = system: NCI-H460; assay: as above; settings: inducer: cisplatin 4 uM; 10 µM; 24 h
# Description: as §1
# 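Wherever cell-surface PD-L1 MFI ratio relative to radiation alone (isotype-subtracted) is given: surface PD-L1 on NSCLC cells stained with a PE-labelled anti-human PD-L1 antibody before flow cytometry, screening a library of roughly two hundred mostly kinase and epigenetic inhibitors.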
SMILES,cell-surface PD-L1 MFI ratio [1],cell-surface PD-L1 MFI ratio [2],cell-surface PD-L1 MFI ratio [3]
O=C(O)c1ccc2c3c1cccc3c(=O)n1c3ccccc3nc21,inactive: 1.02,inactive: 1.43,inactive: 1.04
Cc1ccc(C(=O)c2cc(O)c(O)c([N+](=O)[O-])c2)cc1 [Tolcapone],inactive: 1.48,inactive: 0.93,inactive: 1.38
c1ccc(-c2nn3c(c2-c2ccnc4cc(OCCN5CCOCC5)ccc24)CCC3)nc1,inactive: 1.42,active: 0.67,inactive: 1.17
CN1c2ccccc2C(=O)Nc2cnc(Nc3ccc(N4CCC(O)CC4)cc3)nc21,inactive: 1.51,inactive: 1.15,inactive: 1.95
CC(C)(C)c1cc(NC(=O)Nc2ccc(-c3cn4c(n3)sc3cc(OCCN5CCOCC5)ccc34)cc2)no1 [Quizartinib (AC220)],inactive: 1.03,active: 0.714,inactive: 1.25
Cc1ccc(-c2cc(C(F)(F)F)nn2-c2ccc(S(N)(=O)=O)cc2)cc1 [Celecoxib],inactive: 1.43,active: 0.591,inactive: 1.1
C[C@]1(c2nc3c(C(N)=O)cccc3[nH]2)CCCN1 [Veliparib (ABT-888)],inactive: 0.935,active: 0.427,active: 0.636
COc1ccc(N2C(=O)/C(=C\c3ccc([N+](=O)[O-])s3)SC2=S)cc1,inactive: 1.07,inactive: 4.08,inactive: 3.23
CNC(=O)c1cc(Oc2ccc(NC(=O)Nc3ccc(Cl)c(C(F)(F)F)c3)cc2)ccn1 [Sorafenib],inactive: 1.27,inactive: 1.34,inactive: 1.53
